Over roughly 33,000 sequences, “E-score (-0.5 to 0.5)” has its median near -0.012; the highest 2% begin near 0.29. This is one part of the list.

The target of the experiment is T1, Ybr033w (UniProt P38073).
T1 sequence: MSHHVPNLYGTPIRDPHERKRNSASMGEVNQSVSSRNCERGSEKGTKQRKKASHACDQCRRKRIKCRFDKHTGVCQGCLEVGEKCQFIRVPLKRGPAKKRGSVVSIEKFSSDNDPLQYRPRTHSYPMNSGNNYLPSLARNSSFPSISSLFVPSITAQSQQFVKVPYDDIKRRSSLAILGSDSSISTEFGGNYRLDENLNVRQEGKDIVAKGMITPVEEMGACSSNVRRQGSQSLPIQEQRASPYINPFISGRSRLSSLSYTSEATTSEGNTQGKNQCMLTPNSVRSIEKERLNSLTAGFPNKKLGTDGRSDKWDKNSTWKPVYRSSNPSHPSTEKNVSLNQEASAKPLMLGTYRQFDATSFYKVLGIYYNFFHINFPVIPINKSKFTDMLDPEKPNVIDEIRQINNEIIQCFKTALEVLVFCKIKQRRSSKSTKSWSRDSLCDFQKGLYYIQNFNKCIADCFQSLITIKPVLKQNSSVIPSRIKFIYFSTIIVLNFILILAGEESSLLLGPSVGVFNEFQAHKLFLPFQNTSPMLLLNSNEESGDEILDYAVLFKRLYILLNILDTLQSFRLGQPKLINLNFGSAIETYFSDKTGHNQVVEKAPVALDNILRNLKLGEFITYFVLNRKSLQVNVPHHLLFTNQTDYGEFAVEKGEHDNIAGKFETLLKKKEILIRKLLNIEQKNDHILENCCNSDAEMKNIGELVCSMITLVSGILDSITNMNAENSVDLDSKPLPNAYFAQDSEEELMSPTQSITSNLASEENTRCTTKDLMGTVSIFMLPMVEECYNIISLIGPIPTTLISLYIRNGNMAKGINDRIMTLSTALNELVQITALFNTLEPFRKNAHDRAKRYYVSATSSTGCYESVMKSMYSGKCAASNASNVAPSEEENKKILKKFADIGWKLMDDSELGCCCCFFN
Briefly: PBM E-score (8-mer binding enrichment) (E-score (-0.5 to 0.5)); higher = stronger / more preferred TF binding; most listed sequences are background and not binding sites. The conditions noted are these: protein concentration: 200 nM; construct: GST-full length. The method in brief:
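Using PURExpress in vitro transcription/translation, GST-tagged yeast transcription factors were made in full-length or DNA-binding-domain form. These were applied at about 100-200 nM to double-stranded universal all-10-mer Agilent arrays, and bound protein was detected with fluorescent anti-GST. Scans were normalised with masliner before the Universal PBM Analysis Suite assigned E-scores to ungapped eight-base words pooled with their reverse complements.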
For GTTGCCCA, the “PBM E-score” value was 0.0908. Regarding AACTCATC, the “PBM E-score” value was -0.0094.

As to GGGCTAAC, the “PBM E-score” value is -0.168.

With CGGCGTGC, the “PBM E-score” value is -0.303. Consider AGAATCAA, for which the “PBM E-score” value is 0.091.

As to GTAATCCA, the “PBM E-score” value came to 0.0788. Regarding AACGGAAG, the “PBM E-score” value was found to be 0.0503. CCGTTCAA: the “PBM E-score” value stood at 0.155. In the case of CACGCTAG, the “PBM E-score” value was -0.188. For the sequence ACTCCATG, the “PBM E-score” value was -0.106. On to CCGAAACC, for which the “PBM E-score” value was -0.12.

On to AACACTGA, for which the “PBM E-score” value was 0.208.

Regarding GCAGAGCC, the “PBM E-score” value was -0.0675. As to CTATTGCC, the “PBM E-score” value was -0.129. With GAGTGGGC, the “PBM E-score” value was -0.189. As for AATTCTGC, the “PBM E-score” value came to 0.0888. As to AAGCGGCG, the “PBM E-score” value was -0.112. In the case of TACATCAA, the “PBM E-score” value was 0.0979. For CCGACTCG, the “PBM E-score” value was -0.0146. On to AGATTTGG, for which the “PBM E-score” value was -0.122.

Consider CACAACCA, for which the “PBM E-score” value is 0.0137.

On to CGGACACG, for which the “PBM E-score” value is -0.141.

As for AAGTATCC, the “PBM E-score” value worked out at 0.0423. Regarding AACTGTAG, the “PBM E-score” value was 0.161.

For the sequence CGGGGGTC, the “PBM E-score” value is -0.296. For AAATACAA the value was 0.284. To GCCTGTAC belongs 0.0707.

On to CACTTCGC, for which the “PBM E-score” value was -0.0211. For GGGAACCC the value was -0.202.

With CATGAAAA, the “PBM E-score” value came out at 0.165. Take CCGGCTCG: the “PBM E-score” value was 0.0646. For the sequence CGACGAGA, the “PBM E-score” value was -0.12. As for AATAGTAT, the “PBM E-score” value was 0.293. For CAATGAAG, the “PBM E-score” value was 0.0396. To CTATGTTC belongs 0.145; to ATGGGGCC, -0.322; to AACAGAGA, 0.172. As for CCATCAAC, the “PBM E-score” value turned out to be 0.136. For the sequence AATAAGTC, the “PBM E-score” value came out at 0.197.

Turning to AGACCACT, the “PBM E-score” value is -0.0843.

Regarding GCCAGCGA, the “PBM E-score” value is -0.164. With AACGGTTA, the “PBM E-score” value was -0.0197. To AACTTATT belongs 0.21; to ACACTAGC, -0.067; to CCAATAAG, 0.00582.

GCTGTGCC: the “PBM E-score” value was -0.00906. Turning to GAGCTACC, the “PBM E-score” value was 0.02. For GAGAAGCC the value was -0.268; for TGCCCGAA, 0.0118. Regarding GAAGTCGC, the “PBM E-score” value was 0.00954. For CCACGGAA, the “PBM E-score” value is 0.0292. For GTATCCGA the value was -0.0198; for ACGCCTTA, -0.209; for CTTCATAA, 0.148. Regarding AATACCGC, the “PBM E-score” value turned out to be 0.0223. Take CCACTAGG: the “PBM E-score” value was -0.174. With CATTGACC, the “PBM E-score” value came to 0.0887.

ACTTCCAT: the “PBM E-score” value was determined as 0.00515. To GGGTCCTA belongs -0.279.

For the sequence GGTCGCAC, the “PBM E-score” value is -0.0828. Take ATTTTCCA: the “PBM E-score” value turned out to be 0.361. Take CGACAACA: the “PBM E-score” value was -0.00263.

For the sequence AGGCTAAG, the “PBM E-score” value was -0.128. Regarding CGATTACC, the “PBM E-score” value was -0.101. Turning to TCAGAGAA, the “PBM E-score” value is 0.0787. As to CTTCGCTA, the “PBM E-score” value was -0.214. With AGACAAAT, the “PBM E-score” value came to 0.129. To CATATAAG belongs 0.114; to ACCGTATC, -0.0272; to ACCTCACG, -0.0608. Consider CTAATGCC, for which the “PBM E-score” value was -0.0504. As for GGTATCGA, the “PBM E-score” value was 0.092.

As to AACACAGG, the “PBM E-score” value is -0.131. To AGAGGATG belongs -0.0267; to CGTGAACC, -0.0959; to CTTCGGTA, -0.0419. To AGTTCGAA belongs 0.197; to CTCTCAAC, -0.0216. Take CACTGACC: the “PBM E-score” value was -0.269. To GTAACAAA belongs 0.199; to GCCTCTTA, -0.135; to AGACTATC, 0.116. Regarding ATTCAGTG, the “PBM E-score” value was determined as 0.224. Consider AGGCGTGC, for which the “PBM E-score” value was -0.00418. For TAGGGAGA, the “PBM E-score” value is -0.159. Turning to AGCGCACG, the “PBM E-score” value was -0.267.
